Test results from ChEMBL document CHEMBL4888484, “Replenishing the malaria drug discovery pipeline: Screening and hit evaluation of the MMV Hit Generation Library 1 (HGL1) against asexual blood stage Plasmodium falciparum ,using a nano luciferase reporter read-out” (2022).
Out of some 150,000 compounds screened, about 540 (0.36%) showed an effect of 50% or more. The list shows a part of the results.

These molecules were tested on Plasmodium falciparum (assay: Primary screen in NF54 nanoGlo assay, in single point, at 2uM, 72h; a lower Z score goes with more inhibition). Settings: timepoint 72 hour.
Assay type: functional, Erythrocyte
For `CC[C@H](NC(=O)N1CCCCO1)c1ccc(OC(F)F)cc1`, the “% Inhibition” value was -10% and the Z score was 0.84.
`CC1(COc2cccc(CNC3CCCC3)c2)COC1` was tested, and the “% Inhibition” value was 19% and the Z score was -2.63.
`Cn1cc(CNC(=O)NC[C@]23C[C@H]2COC32CCC2)nn1` was tested, and the “% Inhibition” value was -5% and the Z score was 1.
With `O=C(c1ccccc1)c1cc(Cl)ccc1Nc1nc2ccc(Cl)cc2c(-c2ccccc2)c1Cl` the “% Inhibition” value was -13% and the Z score was 1.72.
In the case of `COCCn1cnc2cc(NC(=O)C3CCCCC3)cc(C(=O)N(C)Cc3ccco3)c21`, the “% Inhibition” value is reported as -4% and the Z score is reported as 0.58.
In the case of `CN1CCO[C@@H]2CN(c3nc(C4CCC4)no3)C[C@@H]21`, the “% Inhibition” value is reported as 1% and the Z score is reported as -0.08.
For `CCN1C[C@@H](c2ccccc2)CC2(CCN(c3nc(CO)cs3)CC2)C1`, the “% Inhibition” value was -13% and the Z score was 1.84.
In the case of `Cc1cc(C)c(C#N)c(-c2cccc(C(=O)NCc3cc(C4CC4)on3)c2)n1`, the “% Inhibition” value is reported as -18% and the Z score is reported as 1.96.
With `Cn1cnc(CCNS(=O)(=O)C2CC2)c1Br` the “% Inhibition” value was -8% and the Z score was 1.13.
`CC(C)c1nnc(NC(=O)CCC(=O)N2CCc3c(cccc3N3CCOC3=O)C2)s1` was tested, and the “% Inhibition” value was -15% and the Z score was 2.77.
`CN(CCO[C@@H]1CCCCO1)Cc1cc(Cl)cn1C` was tested, and the “% Inhibition” value was -5% and the Z score was 0.52.
In the case of `CCc1c(C)cc(C(=O)N2CCN(c3ccccc3C)C[C@@H]2C)c(=O)n1C`, the “% Inhibition” value is reported as -1% and the Z score is reported as 0.25.
`Cc1cccc(-c2noc(-c3nc4c([nH]3)CCCNC4=O)n2)c1` was tested, and the “% Inhibition” value was -17% and the Z score was 1.53.
For `CCN1CC2(CCN(c3ccnc(C)n3)CC2)C[C@@H](c2ccccc2)C1=O`, the “% Inhibition” value was -2% and the Z score was 0.35.
With `COc1ccc(Cl)cc1C(=O)N1CCCN(Cc2ccncc2)CC1` the “% Inhibition” value was -13% and the Z score was 1.64.
In the case of `FC1(F)CCN(c2ncnc3[nH]ccc23)C1`, the “% Inhibition” value is reported as -3% and the Z score is reported as 0.37.
In the case of `Cc1cc2ncn(Cc3nc(N)nc(N)n3)c2cc1C`, the “% Inhibition” value is reported as -11% and the Z score is reported as 0.99.
`Cc1cc(C2CCC2)nc(N(C)CC2(CO)CCOCC2)n1` was tested, and the “% Inhibition” value was 4% and the Z score was -0.5.
In the case of `Fc1ccc(-c2n[nH]c3c2CN(c2nnnn2-c2ccccc2)CC3)c(F)c1`, the “% Inhibition” value is reported as -8% and the Z score is reported as 1.19.
`Cc1cc(C(=O)NCCNc2cnccn2)sc1C` was tested, and the “% Inhibition” value was 7% and the Z score was -1.07.
`Cc1nc(CN(C)[C@@H](C)c2ccccn2)oc1C` was tested, and the “% Inhibition” value was -6% and the Z score was 0.64.
With `COc1cc2c(cc1OC)CN(C(=O)c1oc(C3CC3)nc1C)CC2` the “% Inhibition” value was -5% and the Z score was 0.65.
In the case of `O=C(NCCCn1cccn1)c1cnc(Cc2c(Cl)cccc2Cl)nc1O`, the “% Inhibition” value is reported as -7% and the Z score is reported as 1.42.
In the case of `COc1ccc(CNC(=O)Cn2nc3c(-c4nc(-c5ccc(C)cc5)no4)cccn3c2=O)cc1`, the “% Inhibition” value is reported as -13% and the Z score is reported as 1.99.
`Cc1csc(NC(=O)C2CCN(CCC#N)CC2)n1` was tested, and the “% Inhibition” value was -1% and the Z score was 0.17.
For `COc1ccc(C(=O)O)nc1-c1cc(F)cc2cccnc12`, the “% Inhibition” value was 0% and the Z score was -0.08.
For `CC(C)(C)OC(=O)N1CC[C@@](O)(c2ccccc2CO)C1`, the “% Inhibition” value was -8% and the Z score was 1.04.
In the case of `C=CCC[C@@H](CN1CCCC1)Oc1nccc(OC)n1`, the “% Inhibition” value is reported as -12% and the Z score is reported as 1.3.
With `Cc1cccc(N2CCO[C@H](c3ccco3)C2)n1` the “% Inhibition” value was -3% and the Z score was 0.32.
With `CC(C)c1ccc(-c2noc(Cn3nnn(-c4ccccc4Cl)c3=O)n2)cc1` the “% Inhibition” value was -32% and the Z score was 3.73.
With `CC(=O)N1CCc2ccc(OCc3nc(C(=O)N(C)Cc4ccccc4)cs3)cc2[C@@H]1c1ccccc1` the “% Inhibition” value was -6% and the Z score was 0.54.
`O=C(NCCC(c1ccccc1)c1ccccc1)C1CCC1` was tested, and the “% Inhibition” value was -11% and the Z score was 1.52.
With `Cc1nc(CC(=O)N[C@H]2CCN(Cc3cscn3)C[C@@H]2O)cs1` the “% Inhibition” value was -14% and the Z score was 1.82.
In the case of `CC1CCCC(CCN2CCC[C@@H]2C(=O)O)C1` (stereo partly specified), the “% Inhibition” value is reported as 2% and the Z score is reported as -0.32.
In the case of `Cc1cc(F)cc(S(=O)(=O)N2CCC[C@H]2c2ccnn2C)c1`, the “% Inhibition” value is reported as 7% and the Z score is reported as -0.78.
With `CCCC(=O)N1CCC(N[C@@H](c2cccnc2)c2ccc(C)cc2C)CC1` the “% Inhibition” value was -4% and the Z score was 0.63.
In the case of `FC(F)(F)Cn1ccc(NC2CC3CCC2C3)n1` (stereo unspecified), the “% Inhibition” value is reported as 2% and the Z score is reported as -0.21.
In the case of `COCc1cc(=O)n(Cc2cccc(F)c2)c(N2CCCC2)n1`, the “% Inhibition” value is reported as -11% and the Z score is reported as 1.35.
In the case of `CC1CC(=O)CCC1C(=O)N(Cc1ccccc1)CC(C)(C)C` (stereo unspecified), the “% Inhibition” value is reported as 0% and the Z score is reported as -0.02.
For `COc1nc2c(cc1CNc1cccc(C#N)n1)C(=O)N(C1CCCC1)C2`, the “% Inhibition” value was -1% and the Z score was 0.19.
For `COCCO[C@H]1CCN(C(=O)NC2Cc3ccccc3C2)C1`, the “% Inhibition” value was -11% and the Z score was 2.19.
In the case of `CCC1CCCCN1CC(=O)N(C1CCCC1)C1CCS(=O)(=O)C1` (stereo unspecified), the “% Inhibition” value is reported as -10% and the Z score is reported as 1.53.
In the case of `COc1cccc(N2CCN(C(=O)c3cnc(N4CCOCC4)nc3C)CC2)c1`, the “% Inhibition” value is reported as -20% and the Z score is reported as 3.12.
